# Reference: PubChem BioAssay AID1347165 (National Center for Advancing Translational Sciences (NCATS), 2019)
# The campaign covered roughly 220,000 compounds. About 5,700 (2.6%) were called active. Inconclusive means that the source gave no clear call. Such entries were picked first, then a sample of the others. Calls follow the shape of the dose curve; as a rule, active = well fitted inhibition curve with a large enough effect; inconclusive = small, poorly fitted or top-dose-only effect; inactive = no such curve, though single readings can be large or run the other way. Where the call is inconclusive, the potency comes from a doubtful curve fit.
# Target: Lysine-specific demethylase 5B (Homo sapiens) (UniProt Q9UGL1)
# UniProt Q9UGL1, sequence (Q9UGL1 whole entry, looked up): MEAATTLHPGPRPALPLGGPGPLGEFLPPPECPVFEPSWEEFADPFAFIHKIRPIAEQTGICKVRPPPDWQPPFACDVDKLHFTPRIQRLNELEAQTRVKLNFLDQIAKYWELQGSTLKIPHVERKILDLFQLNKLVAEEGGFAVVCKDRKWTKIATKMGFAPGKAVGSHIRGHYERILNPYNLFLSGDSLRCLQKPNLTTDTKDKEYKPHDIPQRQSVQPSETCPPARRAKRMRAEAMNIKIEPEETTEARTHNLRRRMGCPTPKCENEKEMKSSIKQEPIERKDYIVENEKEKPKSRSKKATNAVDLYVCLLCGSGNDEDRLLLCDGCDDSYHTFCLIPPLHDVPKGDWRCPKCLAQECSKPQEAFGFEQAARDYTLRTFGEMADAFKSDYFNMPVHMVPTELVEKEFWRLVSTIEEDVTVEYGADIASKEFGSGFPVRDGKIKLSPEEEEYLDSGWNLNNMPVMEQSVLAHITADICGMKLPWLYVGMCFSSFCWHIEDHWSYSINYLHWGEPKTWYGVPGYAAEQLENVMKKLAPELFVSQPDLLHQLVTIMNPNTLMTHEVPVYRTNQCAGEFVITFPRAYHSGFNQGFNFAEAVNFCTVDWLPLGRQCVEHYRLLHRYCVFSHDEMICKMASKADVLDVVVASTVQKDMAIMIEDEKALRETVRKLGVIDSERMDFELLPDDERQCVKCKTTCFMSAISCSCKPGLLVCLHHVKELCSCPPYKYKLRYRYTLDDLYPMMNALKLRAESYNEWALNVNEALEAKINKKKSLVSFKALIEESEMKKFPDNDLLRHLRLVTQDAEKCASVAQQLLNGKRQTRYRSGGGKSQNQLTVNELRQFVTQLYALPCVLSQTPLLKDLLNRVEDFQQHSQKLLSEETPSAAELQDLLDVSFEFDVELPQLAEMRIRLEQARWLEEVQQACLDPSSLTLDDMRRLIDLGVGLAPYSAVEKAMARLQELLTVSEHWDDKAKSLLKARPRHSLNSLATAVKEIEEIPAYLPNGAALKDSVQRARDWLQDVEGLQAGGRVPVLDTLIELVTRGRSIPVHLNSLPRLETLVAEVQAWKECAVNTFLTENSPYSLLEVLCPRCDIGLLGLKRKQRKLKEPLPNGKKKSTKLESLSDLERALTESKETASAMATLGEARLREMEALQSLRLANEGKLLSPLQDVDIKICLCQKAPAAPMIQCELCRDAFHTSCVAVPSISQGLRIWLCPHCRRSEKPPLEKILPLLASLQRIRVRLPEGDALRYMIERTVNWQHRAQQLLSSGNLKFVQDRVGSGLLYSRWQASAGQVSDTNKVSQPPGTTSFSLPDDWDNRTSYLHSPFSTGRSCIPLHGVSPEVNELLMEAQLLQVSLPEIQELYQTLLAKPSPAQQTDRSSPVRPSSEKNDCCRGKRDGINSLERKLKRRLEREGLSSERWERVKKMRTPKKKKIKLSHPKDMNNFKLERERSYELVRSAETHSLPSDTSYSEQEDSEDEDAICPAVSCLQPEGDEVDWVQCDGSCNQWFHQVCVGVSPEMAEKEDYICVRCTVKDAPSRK
# Test: Primary screen for KDM5B Histone Demethylases FDH-coupled qHTS; also: nearly all actives have a fitted effect of over 70% in size
# Details: FDH-coupled NADH fluorescence (FDH is formaldehyde dehydrogenase); series mostly up to 57.7 µM
# In short: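 Here, H3K4me3 peptide (12.5 µM in substrate mix) is demethylated by KDM5BΔAP, 200 nM final, after 10 min compound exposure. Formaldehyde product is coupled through FDH (0.25 U/mL in mix) to NADH fluorescence; 30-min ΔRFU feeds dose-response curves.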
# Potency is read from the fitted curve at half-maximal effect; tags tell the direction and shape of the fitted curve.
row,Compound,Potency
1,COc1ccc(OC)c(CNC(=O)c2cc3c(Cl)nc4ccccc4c3s2)c1,"inconclusive: 14.1 µM [inhibitor, partial curve, poor fit]"
2,Cc1cccc(NC(=O)/C(C#N)=C/c2ccco2)c1,"inconclusive: 3.55 µM [inhibitor, full curve, poor fit]"
3,CC1CCc2noc(NC(=O)c3cc(=O)c4cc(Cl)ccc4o3)c2C1 (configuration not stated),"inconclusive: 31.6 µM [inhibitor, partial curve, poor fit]"
4,O=C(NCCC1=CCCCC1)c1nnn2cc(-c3ccccc3)[nH]c(=O)c12,"inconclusive: 15.8 µM [inhibitor, partial curve, poor fit]"
5,COc1cc(-c2ccc(C)cc2)nc2ccc(C(=O)N3CCCC3)cc12,inactive
6,COc1ccc(CCc2nc3nccc(-c4ccccc4)n3n2)cc1OC,inactive
7,O=C(N1CCC2(CCCCO2)CC1)C1(c2ccccc2)CC1,inactive
8,CCN1CCN(c2nc3nnnn3c3sc4c(c23)CCN(Cc2ccccc2)C4)CC1,"inconclusive: 25.1 µM [inhibitor, partial curve, poor fit]"
9,Cc1oc2c(cc(NS(=O)(=O)c3ccc(C(C)C)cc3)c3ccccc32)c1C(=O)OCc1ccccc1,"inconclusive: 2.51 µM [inhibitor, full curve, poor fit]"
10,CCOc1cc(/C=C/C(=O)c2ccc(Cl)c(Cl)c2)ccc1O,inactive
11,COCc1nnc(NC(=O)CCn2ccc3ccc(F)cc32)s1,inactive
12,CC(C)CCNC(=O)COC(=O)c1cc(-c2ccco2)nc2ccccc12,"inconclusive: 22.4 µM [inhibitor, partial curve, poor fit]"
13,CCCn1nc(C(=O)OCC(=O)NCc2ccc(F)cc2)c2ccccc2c1=O,inactive
14,Cc1cnc(C2CC2)n1CC1CCN(C(=O)Cc2ccccc2)CC1,inactive
15,O=C(O)c1ccc(NS(=O)(=O)c2ccc(Cl)c(C(=O)Nc3ccccc3)c2)cc1,"inconclusive: 35.5 µM [inhibitor, single point]"
16,Cc1oc(-c2ccccc2)nc1C(=O)NCC(c1ccccc1)N1CCCC1 (configuration not stated),inactive
17,O=C(c1ccc(CS(=O)(=O)c2ccc(Br)cc2)o1)N1CCN(c2ccc(F)cc2)CC1,inactive
18,Cn1cccc1CN1CCC(N2CCOCC2=O)CC1,"inconclusive: 89.1 µM [inhibitor, partial curve]"
19,CCc1ccc2cc(C(=O)O)[nH]c2c1,"inconclusive: 39.8 µM [inhibitor, single point]"
20,O=C(/C=C/c1ccc(-c2c(Cl)cccc2Cl)o1)c1ccc(Cl)cc1,"inconclusive: 28.2 µM [inhibitor, single point]"
21,CCOc1ccc(NC(=O)CCc2c(C)nc3cc(-c4ccccc4OC)nn3c2C)cc1,"inconclusive: 25.1 µM [inhibitor, single point]"
22,CCCCNC(=O)CC(c1ccc(OC)cc1OC)c1c[nH]c2c(CC)cccc12 (configuration not stated),"inconclusive: 28.2 µM [inhibitor, partial curve]"
23,CCN(CC)C(=O)CNC(=O)c1[nH]c2ccccc2c1Cl,"inconclusive: 25.1 µM [inhibitor, single point]"
24,O=C(NCc1ccco1)c1ccc2c(c1)N(Cc1ccccc1)C(=O)c1ccccc1S2,"inconclusive: 10 µM [inhibitor, partial curve, poor fit]"

row,Compound,Potency
1,Cc1ccc(C(=O)NCc2nnc3cc(-c4nc(C(C)C)no4)ccn23)cc1,active: 10 µM
2,Fc1ccc(CN2CCOC[C@H]2c2ncc(-c3cccc(Cl)c3)[nH]2)cc1,inactive
3,O=C(NC1CCCCC1)c1ccc(CSc2nc3cccnc3n2Cc2cccc(F)c2)cc1,"inconclusive: 35.5 µM [inhibitor, partial curve, poor fit]"
4,CC(NC(=S)NNC=O)c1ccccc1 (configuration not stated),inactive
5,COc1nccnc1NC1CCN(C(=O)Cc2ccsc2)CC1,active: 31.6 µM
6,OCCCNc1nc(-c2cccs2)nc2ccccc12,"inconclusive: 31.6 µM [inhibitor, single point]"
7,CC(C(=O)Nc1ccc(F)c(F)c1)N1CCN(C)CC1 (configuration not stated),"inconclusive: 2.82 µM [inhibitor, full curve, poor fit]"
8,O=C(CN1CCN(c2ccc(C(F)(F)F)cn2)CC1)NC1CC1,inactive
9,COCCCn1c(=N)c(C(=O)NC2CCCC2)cc2c(=O)n3cccc(C)c3nc21,"inconclusive: 2.82 µM [inhibitor, full curve, poor fit]"
10,COCCn1c(SCC(=O)Nc2ccc(Cl)c(C(F)(F)F)c2)nc2ccsc2c1=O,"inconclusive: 39.8 µM [inhibitor, single point]"
11,CC(=O)N(c1cccc(C)c1)c1nc(CSc2nnc(C)n2C2CC2)cs1,inactive
12,CC(C)(Oc1nn(Cc2cccc(Cl)c2)c2ccccc12)C(=O)NCC[S+](C)(=O)[O-],inactive
13,COc1cccc(CN2C(=O)C3(SCC(=O)N3c3ccc(C)c(Cl)c3)c3ccccc32)c1 (configuration not stated),"inconclusive: 1.58 µM [inhibitor, full curve, poor fit]"
14,CCc1ccc(NC(=O)CCCc2ccc(OC)cc2C)cc1,inactive
15,O=C(CCN1CCCC1)c1cccs1,"inconclusive: 15.8 µM [inhibitor, partial curve, poor fit]"
16,Cc1ccc(-c2nc3ncccc3o2)cc1NC(=O)c1ccccc1,"inconclusive: 31.6 µM [inhibitor, single point]"
17,COc1ccc(NC(=O)CSc2ccc3nnc(-c4ccccn4)n3n2)cc1,inactive
18,COc1cccc(CN[C@H]2[C@H](O)[C@H](O)C[C@@H]2c2ccc(N3CCOCC3)nc2)c1,active: 35.5 µM
19,COc1ccc(-c2noc(CSc3nnc(-c4ccco4)n3C3CCCCC3)n2)c(OC)c1,inactive
20,Cc1ccc(-c2ccccc2)n1-c1cccc(C(=O)O)c1,inactive
21,Cc1cccc(OCC(=O)Nc2cc(-c3nc4ccccc4o3)ccc2C)c1,inactive
22,Cc1cccnc1CN1CCN(CC2(O)CCNC2)CC1 (configuration not stated),"inconclusive: 8.91 µM [inhibitor, partial curve]"
23,COCc1cn(C[C@H]2C[C@@H](NCc3nccn3C)[C@H](O)[C@@H]2O)nn1,"inconclusive: 25.1 µM [inhibitor, partial curve]"
